Molecules are shown by their SMILES. About 540 (0.36%) of roughly 150,000 compounds showed an effect of 50% or more. This is one part of the list.

The test system of the assay is Plasmodium falciparum. The assay can be described thus: Primary screen in NF54 nanoGlo assay, in single point, at 2uM, 72h; a lower Z score goes with more inhibition. The class given is functional, Erythrocyte. Particulars: timepoint 72 hour.
The % Inhibition is the drop in the measured response relative to a control, in per cent. Take `O=C(Cc1coc(-c2ccc(F)cc2)n1)N1CCCC[C@@H]1CCO`: the “% Inhibition” value was -2% and the Z score worked out at 0.33.
In the same order, the values of `Cc1cc(C(=O)N(CC2CCN(C3Cc4ccccc4C3)CC2)C[C@H]2CCCO2)nc(N)n1` are 7% and -0.8.
For the compound `COC(CS(=O)(=O)Nc1ccc(C)cc1C(=O)C(F)(F)F)C1CCOC1` (stereo not given), the “% Inhibition” value was -1% and the Z score came out at 0.16.
As for `CCc1nccn1CCCNC(=O)N(C)Cc1nc2cc(Cl)ccc2[nH]1`, the “% Inhibition” value is -3% and the Z score worked out at 0.34.
In the same order, the values of `COCC[C@]1(NCc2c(C)nc3scc(C4CC4)n23)CCOC1` are -5% and 0.97.
For `Cc1cc(C)n(CCNC(=O)c2ccncc2)c(=O)n1`, the “% Inhibition” value amounted to 1% and the Z score is reported as -0.19.
In the same order, the values of `O=C(NCCCOc1cccnc1)c1cn2c3c(cccc3c1=O)CC2` are -7% and 1.15.
`Cc1oc(C(C)C)cc1C(=O)N(C)Cc1ncon1`: the “% Inhibition” value is reported as 29% and the Z score is on record as -3.32.
In the same order, the values of `COc1ccc(OC)c([C@H]2N(Cc3ccc(F)cc3)CCCN2Cc2ccccc2Cl)c1` are -3% and 0.37.
As to `CCOc1cc(CNc2cccc3ccccc23)cc(Br)c1OCC(=O)NC(C)(C)C`, the “% Inhibition” value is recorded as 56% and the Z score is -9.96.
Consider `COc1ccc(CN2CC(C(=O)O)C2)c2c(OC)cccc12`, for which the “% Inhibition” value is given as -14% and the Z score is 1.38.
Consider `COCCC(=O)NC1CCC(CO)CC1` (stereo not given), for which the “% Inhibition” value is recorded as -4% and the Z score is recorded as 0.7.
As to `COc1cc(O)ccc1-c1nccn1[C@H]1CCN(Cc2ccccc2)C1`, the “% Inhibition” value is given as -7% and the Z score was found to be 1.57.
Turning to `CCN1C[C@@H](CN(C)C(=O)c2cn(C(c3ccccc3)c3ccccc3)nn2)CC1=O`, the “% Inhibition” value is given as -16% and the Z score was determined as 2.7.
With `O=C(CN1CCCCc2cc(Br)ccc21)N1CCC1`, the “% Inhibition” value turned out to be 3% and the Z score is listed as -0.44.
Regarding `CCS(=O)(=O)NCCNC(=O)c1cc(C(=O)OC)ccn1`, the “% Inhibition” value was -16% and the Z score amounted to 1.84.
Take `Cc1cc(N2CCOC(C)C2)nc(N2CCOC(C)C2)c1C#N` (stereo not given): the “% Inhibition” value is -6% and the Z score amounted to 1.19.
For the compound `CC(C)(C)C(=O)[C@H](C#N)c1ccccn1`, the “% Inhibition” value is given as -2% and the Z score is listed as 0.34.
In the same order, the values of `CCOc1ncccc1-c1nc(CCNC(=O)OC(C)(C)C)no1` are -15% and 1.6.
In the same order, the values of `O=C(CCC1CCCCC1)N1CC[C@H](n2ccnn2)C1` are -1% and 0.18.
The corresponding values for `Cc1ccc(CS(=O)(=O)N[C@@]23COC[C@@H]2C3)cc1` are 0% and -0.08.
With `O=S1(=O)CCC(Nc2nc3ccccc3s2)CC1`, the “% Inhibition” value is given as -13% and the Z score turned out to be 2.43.
In the same order, the values of `C=Cc1ccc(Cn2cc(C(=O)c3ccccc3)c(=O)c3ccc(C)nc32)cc1` are -10% and 1.26.
The corresponding values for `Cc1cnc([C@@H](NCc2nnc(-c3cccs3)o2)C2CC2)s1` are -6% and 0.64.
For the compound `Cc1ccc2nc(CN3CCS(=O)(=O)C(C)C3C)cn2c1` (stereo not given), the “% Inhibition” value is listed as -13% and the Z score was 1.17.
Regarding `CCOc1ccc2c(c1)C=C(C(=O)NC[C@H](C)N1CCOCC1)CO2`, the “% Inhibition” value is given as -7% and the Z score came to 1.44.
As to `CN(C)c1cc(NC(=O)c2cnn3c2CCC3)cc(C(F)(F)F)c1`, the “% Inhibition” value is recorded as -2% and the Z score is 0.22.
The corresponding values for `CCO[C@@H](C)C(=O)NCc1cc(CC)no1` are -4% and 0.73.
Take `NS(=O)(=O)C1(CNc2ccncc2C(F)(F)F)CCC1`: the “% Inhibition” value was 0% and the Z score is listed as -0.02.
In the same order, the values of `CN(C)c1cc(C(=O)NC2CCN(S(C)(=O)=O)CC2)ccn1` are -11% and 1.16.
In the same order, the values of `Cc1ccccc1N1CCN(C(=O)c2ccc3ncnc(N4CCCC4)c3c2)CC1` are 1% and -0.19.
The corresponding values for `CN1C(=O)C2(CCN(C(=O)COc3ccccc3)CC2)C[C@H]1C(=O)NC1CCCC1` are -8% and 0.98.
Consider `Cc1cc(C(=O)N[C@H]2CN(S(C)(=O)=O)C[C@@H]2C(C)C)no1`, for which the “% Inhibition” value is given as -6% and the Z score came out at 0.55.
As to `CC(CS(C)(=O)=O)NC1CCCCC1Cc1ccccc1` (stereo not given), the “% Inhibition” value was 3% and the Z score was -0.54.
Turning to `O=C(Cn1nc(N2CCCCCC2)c2ccccc2c1=O)Nc1ccc(Cl)cc1`, the “% Inhibition” value is -2% and the Z score is 0.29.
`COc1ccc(NC(=O)c2ccc3nn(CC(=O)Nc4ccc(F)cc4)c(=O)n3c2)cc1`: the “% Inhibition” value is -26% and the Z score was found to be 2.29.
The corresponding values for `Cc1ccc(-c2cccc(C(=O)N3CCC[C@H](c4cc(O)ncn4)C3)c2)nn1` are 1% and -0.13.
In the same order, the values of `Cc1nn(C)c(C)c1S(=O)(=O)N1CC[C@]2(CCN(c3cccnc3)C2)C1` are 38% and -1.28.
The corresponding values for `Cc1nc(CCNC(=O)c2cn(CCN3CCCCC3)nn2)nc2c1CCC2` are -4% and 0.5.
Take `CN(Cc1ccccc1)C(=O)[C@H]1CCc2n[nH]c(=O)n2CC1`: the “% Inhibition” value is 6% and the Z score was -0.99.
The corresponding values for `O=C(Nc1cccc2ccccc12)C1CCN(S(=O)(=O)c2ccc(Cl)cc2)CC1` are -8% and 0.94.
In the case of `Cc1cncc(NCc2cnn(C(C)(C)C)c2)c1`, the “% Inhibition” value is on record as -13% and the Z score is listed as 2.06.
In the same order, the values of `O=C(NCCc1ccccc1)c1c(-c2ccccc2)c(-c2ccccc2)n[nH]c1=O` are -3% and 0.42.
Regarding `CC(C)c1ccc(C(=O)N2CCOCC2C2CCCCC2=O)c(O)c1` (stereo not given), the “% Inhibition” value was -4% and the Z score is recorded as 0.67.
Turning to `CCC[C@]1(O)CCC12CCN(C(=O)COCc1ccccc1)CC2`, the “% Inhibition” value is on record as 0% and the Z score is 0.05.
As to `CCCn1nccc1C(=O)N1CCN2CCN(C)C[C@H]2C1`, the “% Inhibition” value is listed as -6% and the Z score amounted to 0.8.
Turning to `Cc1cc(C(=O)N(CC2CCC2)C[C@H]2CCCO2)cc(C)n1`, the “% Inhibition” value was -13% and the Z score is 1.43.
The corresponding values for `Cc1nc(N)ncc1C(=O)N1CC[C@H]1c1ccc(F)cc1` are -3% and 0.42.
As to `O=C(NCC1(CO)CC1)NC1CCCC1Oc1ccccc1` (stereo not given), the “% Inhibition” value was -10% and the Z score is 1.3.
In the same order, the values of `COc1c2ccc(C(=O)N3CCC[C@H](S(=O)(=O)c4ccc(F)cc4)C3)cc2nn1C` are -23% and 2.96.
Turning to `CC(NC1CCc2c(O)cccc21)c1cnn(C(C)C)c1` (stereo not given), the “% Inhibition” value was -3% and the Z score was determined as 0.27.
The corresponding values for `COC[C@H](NCC(=O)N1CCCCCC1)c1ccc(F)c(F)c1` are 33% and -3.31.
For the compound `CN(C(=O)C[C@]1(c2ccccc2Cl)CC(=O)N(C2CCCC2)C1=O)C(C1CC1)C1CC1`, the “% Inhibition” value was found to be 10% and the Z score is listed as -1.35.
In the same order, the values of `Cc1ccc(NCC(=O)NCC(F)(F)F)cc1C(=O)NC(C)C` are 0% and 0.03.
For `CCCCCN1CC(=O)N[C@@H]1c1ccc(C#N)cc1`, the “% Inhibition” value was -13% and the Z score is recorded as 1.42.
The corresponding values for `O=C(O)[C@H]1CN(c2ccc3nnnn3n2)C[C@@H]1c1ccc(F)cc1F` are 8% and -0.92.
In the same order, the values of `Cc1cccc(CCN(C)[C@H]2CS(=O)(=O)C[C@@H]2O)n1` are -5% and 0.99.
In the same order, the values of `CCc1ccc(CC(=O)NC(CC)CC)cc1` are -7% and 0.71.
`CC(C)(C)OC(=O)NC[C@H](NC(=O)Nc1ccc(N2CCOCC2)nc1)C1CCCCC1`: the “% Inhibition” value is -19% and the Z score stood at 2.52.
The corresponding values for `O=C(NCc1ccccc1)c1cc2cc(NC(=O)C3CCC3)ccc2n1Cc1cccc(F)c1` are -7% and 0.89.
The corresponding values for `COc1ccc(Cl)cc1NC(=O)COc1cc(C)c2c(C)nn(C)c2n1` are 2% and -0.43.
The corresponding values for `Clc1ccc(COC2CCN(Cc3ccon3)CC2)cc1Cl` are -8% and 0.74.
On to `CC1(C)C(=O)NC(=O)N1Cc1noc(-c2ccoc2)n1`, for which the “% Inhibition” value was 44% and the Z score is reported as -3.98.
In the same order, the values of `CC(=O)N1CCC(CCc2noc(-c3ccc(F)cc3)n2)CC1` are -3% and 0.51.
Regarding `CCCCC(C(=O)Nc1cc(C)on1)N1CCN(C)CC1C` (stereo not given), the “% Inhibition” value turned out to be 39% and the Z score is reported as -5.75.
In the case of `CC(C)C[C@@](C)(CN)NS(=O)(=O)c1ccc(C#N)cc1`, the “% Inhibition” value is 1% and the Z score is -0.09.
The corresponding values for `Cc1noc(C)c1CCC(=O)N1CCC(Oc2nc3c(C)cccc3s2)CC1` are -5% and 0.72.
`CC/C=C/CC(=O)N1C[C@H](NC(=O)c2ccccc2F)C[C@H]1C(=O)NCC`: the “% Inhibition” value was -23% and the Z score amounted to 2.03.
Take `Cc1ccc(N2C(=O)[C@@H]3[C@H](C)N[C@@]4(C(=O)Nc5ccccc54)[C@@H]3C2=O)cc1`: the “% Inhibition” value was determined as 1% and the Z score is reported as -0.1.
The corresponding values for `CN(C)C(=O)CN(C)C(=O)CCc1ccc(Cl)c(Cl)c1` are 1% and -0.08.
With `Cc1ncc(NC(=O)c2occc2C)c(C2CC2)n1`, the “% Inhibition” value is listed as -9% and the Z score is 1.46.
Regarding `CNC(=O)[C@@H]1C[C@H](N)CN1CC(c1ccccc1)c1ccccc1`, the “% Inhibition” value was 4% and the Z score was -0.42.
With `Cc1ccc(NC(=O)N2CCC[C@H](N(CCCN3CCCC3)S(C)(=O)=O)C2)c(C)c1`, the “% Inhibition” value was 7% and the Z score is listed as -1.15.
The corresponding values for `CCN(C[C@H]1CCOC1)C(=O)C1=NN(c2ccccc2)C(=O)CC1` are -9% and 1.4.
The corresponding values for `CCC(C)NC(=O)CN1CCC[C@@H]1CCc1ccccn1` (stereo not given in full) are 4% and -0.46.
The corresponding values for `O=C(CS(=O)(=O)c1ccccc1)NC1CCCCC1` are -10% and 1.19.
On to `CN1CCN(CCC(C)(C)NC(=O)c2ccc(-c3ncon3)cc2)CC1`, for which the “% Inhibition” value was found to be 5% and the Z score is on record as -0.62.
The corresponding values for `Cc1sc(-c2ccoc2)nc1-c1ccc2c(c1)CC(=O)N2C` are -15% and 1.8.
In the case of `O=C(c1cccnc1)c1ccc(Cl)cc1Cl`, the “% Inhibition” value came out at 2% and the Z score is listed as -0.18.
In the same order, the values of `CN(C)C1(CNC(=O)CCc2ccncc2)CC1` are 3% and -0.49.
In the same order, the values of `CC[C@@H]1[C@@H](C)[C@H](Nc2ccccc2)c2ccccc2N1C(=O)c1ccc(F)cc1` are 3% and -0.44.
The corresponding values for `CCOC(=O)c1cc(NC(=O)c2cnn(C(C)(C)C)c2)c[nH]1` are -3% and 0.32.
For `Cc1ccc(Cl)cc1-n1ncc2c(NCc3ccco3)ncnc21`, the “% Inhibition” value is recorded as -8% and the Z score is 1.01.
Take `O=C(N[C@@H]1CC[C@@H](C(F)(F)F)N(Cc2ccn[nH]2)C1)C(F)(F)F`: the “% Inhibition” value is on record as -7% and the Z score is reported as 0.59.
Regarding `COc1cc(C(=O)N2C[C@H](C)OC3(CCC3)C2)ccc1C`, the “% Inhibition” value was 0% and the Z score was -0.02.

Values taken from ChEMBL document CHEMBL4888484, “Replenishing the malaria drug discovery pipeline: Screening and hit evaluation of the MMV Hit Generation Library 1 (HGL1) against asexual blood stage Plasmodium falciparum ,using a nano luciferase reporter read-out” (2022).
